# Assay results as given in the supplement of paper PMC12889115.
# The other results are listed elsewhere or left out. Cut-off read from the data, not from the text of the source: active = 25% or less and inactive = the rest. Repeats are few or missing, and single values can be far off.
# Key:
# [1] = system: Salmonella enterica serovar Typhimurium SL1344; experiment: bacterial growth OD600 after 18 h in MHB with 0.5 µg/mL polymyxin B; higher = more bacterial growth (less inhibition); settings: 25 µM; polymyxin B 0.5 µg/mL; system: broth
# Method: (§1)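 Secondary screen of the 553 primary hits at 25 µM. (i) S. Typhimurium SL1344 grown in Mueller-Hinton broth with 0.5 µg/mL polymyxin B, OD600 read after 18 h. (ii) SAFIRE assay: RAW 264.7 macrophages infected with S. Typhimurium sifB::gfp (MOI 30); compound added 2 h post-infection; cells fixed at 18 h; GFP-positive pixel fraction per macrophage imaged by confocal microscopy and expressed as % of DMSO control.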
# [2] = system: Salmonella enterica serovar Typhimurium SL1344; experiment: intramacrophage bacterial GFP load (SAFIRE), percent of DMSO control (% of DMSO); higher = more intracellular bacteria (less inhibition); settings: 25 µM; system: infected RAW 264.7 macrophages
# Method: as §1
# 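Throughout, for bacterial growth OD600 after 18 h in MHB with 0.5 µg/mL polymyxin B: polymyxin B level opens the outer membrane while sparing the inner membrane, with novobiocin wells as reference growth inhibitor.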
# 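Throughout, for intramacrophage bacterial GFP load (SAFIRE), percent of DMSO control: compounds tested were the hits of an earlier 50 µM broth growth screen of a drug-like diversity library run with polymyxin B.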
smiles,measurement,setting,value
CN(C(=O)c1ccccn1)C(Cc1ccccc1)C1CCN(C(=O)/C=C/c2ccccc2)CC1 (stereo not drawn),bacterial growth OD600,[1],0.01
same,intramacrophage bacterial GFP load,[2],inactive: 44.6
Cc1ccc2c(c1)CN(C(=O)Cn1cc3ccccc3n1)CC(c1ccsc1)O2 (stereo not drawn),bacterial growth OD600,[1],0.048
same,intramacrophage bacterial GFP load,[2],inactive: 76.7
COCCN1C(=O)CC(CC(=O)N2CCCC(COc3ccccc3C)C2)(c2ccccc2F)C1=O (stereo not drawn),bacterial growth OD600,[1],-0.007
same,intramacrophage bacterial GFP load,[2],inactive: 149
COC(c1ccc2c(c1)CN(C(=O)c1cccc(C#CC(C)(C)O)c1)CCO2)C1CCCCC1 (stereo not drawn),bacterial growth OD600,[1],0
same,intramacrophage bacterial GFP load,[2],inactive: 54.9
CCOC(=O)C1(Cc2cccc(C(F)(F)F)c2)CCN(C(=O)Cc2nonc2C)CC1,bacterial growth OD600,[1],0.623
same,intramacrophage bacterial GFP load,[2],inactive: 89.8
O=C(CSc1ccccc1)N1CCc2onc(-c3ccc(Cl)cc3)c2C1,bacterial growth OD600,[1],-0.023
same,intramacrophage bacterial GFP load,[2],inactive: 138
Cc1nonc1C1CCCN1c1ccc(-c2nc(C3CC3)no2)cn1 (stereo not drawn),bacterial growth OD600,[1],0.034
same,intramacrophage bacterial GFP load,[2],inactive: 86.6
COCc1noc(-c2ccc(N3CCC(c4ccccc4F)C3)nc2)n1 (stereo not drawn),bacterial growth OD600,[1],-0.002
same,intramacrophage bacterial GFP load,[2],inactive: 176
Cc1oc(-c2cccs2)nc1CN1CCCCC1c1nccs1 (stereo not drawn),bacterial growth OD600,[1],0.619
same,intramacrophage bacterial GFP load,[2],inactive: 93.2
Cc1cc(-c2nn(-c3ccccc3F)cc2CN(C)Cc2ccon2)c(C)s1,bacterial growth OD600,[1],0.003
same,intramacrophage bacterial GFP load,[2],inactive: 37.1
Cc1nn(C)cc1CN1CCOc2ccc(C3=Cc4ccccc4C3)cc2C1,bacterial growth OD600,[1],-0.006
same,intramacrophage bacterial GFP load,[2],active: 6.5
CCCc1ccc2oc(C(=O)N3CCCC(COC)C3)c(C)c2c1 (stereo not drawn),bacterial growth OD600,[1],0.002
same,intramacrophage bacterial GFP load,[2],inactive: 53.7
COc1cccc(-c2nc3ccc(C(=O)NCCc4scnc4C)cc3o2)c1,bacterial growth OD600,[1],0.282
same,intramacrophage bacterial GFP load,[2],inactive: 160
COc1cc(Cl)c(CN2CCOc3ccc(CN4C[C@@H](C)O[C@@H](C)C4)cc3C2)cc1OC,bacterial growth OD600,[1],0.594
same,intramacrophage bacterial GFP load,[2],active: 1.94
